Here are results for 76 compounds from the supplement of paper PMC10670038.

Where a name gives a salt, the structure may show the parent alone. ± gives the standard deviation of the averaged measurements. The full ranking holds about 2,000 compounds; the median of “relative cell viability vs DMSO, compound alone” is about 1.1, and the lowest 2% start at about 0.29. The list shows a part of the results.

The test system of the assay is TE10. The assay can be described thus: relative cell viability vs DMSO, compound alone (fraction); TE10 is an esophageal squamous carcinoma line; higher = less cytotoxic. The conditions noted are these: 2 µM; 48 h. The procedure:
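TE10 ESCC cells (1,000/well, 384-well plates) were treated with Selleck bioactive library compounds at 2 uM alone for 48 h. Viability was read by CellTiter-Glo and expressed relative to DMSO wells. Two technical replicates (A, B).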
In the case of `CCS(=O)(=O)CCn1c([N+](=O)[O-])cnc1C` [Tinidazole], the relative cell viability was found to be 1.25 ± 0.086.
For `N#C[C@@H]1C[C@@H]2C[C@@H]2N1C(=O)[C@@H](N)C12CC3CC(CC(O)(C3)C1)C2` [Saxagliptin], the relative cell viability came out at 1.02 ± 0.083.
Compound `CCC1=C(C)CN(C(=O)NCCc2ccc(S(=O)(=O)NC(=O)N[C@H]3CC[C@H](C)CC3)cc2)C1=O` [Glimepiride] showed a relative cell viability of 1.21 ± 0.035.
As for `COc1cc(Nc2nc3ccccc3nc2NS(=O)(=O)c2ccc(NC(=O)c3ccc(C)c(OC)c3)cc2)cc(OC)c1`, the figure is 1.15 ± 0.067; as for `C[C@@]12C[C@@]3(O)O[C@@H](O1)[C@]1(COC(=O)c4ccccc4)[C@H]3C[C@@]12O[C@@H]1O[C@H](CO)[C@@H](O)[C@H](O)[C@H]1O` [Paeoniflorin], 1.04 ± 0.029.
`Cc1coc2c1C(=O)C(=O)c1c-2ccc2c(C)cccc12` [Tanshinone I] had a relative cell viability of 1.11 ± 0.051.
On to `CN(C)Cc1ccc(-c2nc3cccc4c3n2CCNC4=O)cc1`, for which the relative cell viability worked out at 1.2 ± 0.079.
As for `O=C(/C=C\n1cnc(-c2cc(C(F)(F)F)cc(C(F)(F)F)c2)n1)NNc1cnccn1`, the figure is 0.2768 ± 0.0027.
`Cc1[nH]c(/C=C2\C(=O)Nc3ccc(S(=O)(=O)N(C)c4cccc(Cl)c4)cc32)c(C)c1C(=O)N1CCN(C)CC1` yielded a relative cell viability of 1.19 ± 0.05.
As for `CC(C)C[C@H](NC(=O)[C@H]1O[C@@H]1C(=O)O)C(=O)NCCCCN=C(N)N`, the figure is 1.05 ± 0.033.
With `COC(=O)[C@@H]1[C@H]2C[C@H]3c4[nH]c5ccccc5c4CCN3C[C@@H]2CC[C@@H]1O` [Yohimbine HCl] the figure was 1.17 ± 0.004; with `CN(C)CCSSCCNC(=O)C1CCN(C(=O)CSc2ccc(Cl)cc2)CC1`, 1.11 ± 0.035.
As for `CC(C)NCC(O)COc1cccc2ccccc12` (stereo unspecified) [Propranolol HCl], the figure is 1.07 ± 0.033; as for `Cc1nc(NC(=O)N2CCC[C@H]2C(N)=O)sc1-c1ccnc(C(C)(C)C(F)(F)F)c1`, 0.684 ± 0.0077; as for `O=S(=O)(O)CCS` [Mesna], 1.078 ± 0.004.
For `CCCCNC(=O)NS(=O)(=O)c1ccc(C)cc1` [Tolbutamide], the relative cell viability turned out to be 1.06 ± 0.016.
In the case of `C[C@@H]1O[C@@H](O[C@H]2[C@H](Oc3cc(O)c(C(=O)CCc4ccc(O)cc4)c(O)c3)O[C@H](CO)[C@@H](O)[C@@H]2O)[C@H](O)[C@H](O)[C@H]1O` [Naringin Dihydrochalcone], the relative cell viability is 1.01 ± 0.09.
Compound `CCCS(=O)(=O)Nc1ccc(F)c(C(=O)c2c[nH]c3ncc(-c4ccc(Cl)cc4)cc23)c1F` [Vemurafenib (PLX4032, RG7204)] had a relative cell viability of 1.13 ± 0.048.
For `Cc1cccc(-c2[nH]c(CNc3ccccc3F)nc2-c2ccc3ncnn3c2)n1`, the relative cell viability stood at 1.158 ± 0.0069.
In turn, `CCOC(=O)OC(C)OC1=C(C(=O)Nc2ccccn2)N(C)S(=O)(=O)c2ccccc21` (stereo unspecified) [Ampiroxicam] came in with a relative cell viability of 0.984 ± 0.067.
As for `O=C(Nc1c(Cl)cncc1Cl)c1ccc(OC(F)F)c(OCC2CC2)c1` [Roflumilast], the figure is 0.989 ± 0.013; as for `CCC(=O)O[C@]1(C(=O)CCl)[C@@H](C)C[C@H]2[C@@H]3C[C@H](F)C4=CC(=O)C=C[C@]4(C)[C@@]3(F)[C@@H](O)C[C@@]21C` [Halobetasol Propionate], 0.928 ± 0.03.
As for `CC(=O)N[C@H]1[C@H]([C@H](O)[C@H](O)CO)OC(C(=O)O)=C[C@@H]1NC(=N)N` [Zanamivir], the figure is 1.13 ± 0.049.
As for `CCN1CC(CCN2CCOCC2)C(c2ccccc2)(c2ccccc2)C1=O` (stereo unspecified) [Doxapram HCl], the figure is 1.15 ± 0.015; as for `OCc1cc(C(O)CNCCCCCCOCCCCc2ccccc2)ccc1O` (stereo unspecified) [Salmeterol Xinafoate], 1.16 ± 0.075; as for `CC(=O)OCC(=O)[C@@]12N=C(C)O[C@@H]1C[C@H]1[C@@H]3CCC4=CC(=O)C=C[C@]4(C)[C@H]3[C@@H](O)C[C@@]12C` [Deflazacort], 0.923 ± 0.027.
`C[C@@H](CN1CC(=O)NC(=O)C1)N1CC(=O)NC(=O)C1` [Dexrazoxane HCl (ICRF-187, ADR-529)]: the relative cell viability was 1.12 ± 0.014.
Compound `CNCCC(Oc1ccc(C(F)(F)F)cc1)c1ccccc1` (stereo unspecified) [Fluoxetine HCl] registered a relative cell viability of 1.21 ± 0.04.
`Cc1nc2n(c(=O)c1CCN1CCC(c3noc4cc(F)ccc34)CC1)CCCC2` [Risperidone] gave a relative cell viability of 1.12 ± 0.036.
As for `CNC(=O)Nc1ccc(-c2nc(N3CC4CCC(C3)O4)c3cnn(C4CCC5(CC4)OCCO5)c3n2)cc1`, the figure is 0.4519 ± 0.0032.
As for `CN1CC2c3ccccc3Oc3ccc(Cl)cc3C2C1` (stereo unspecified) [Asenapine], the figure is 1.054 ± 0.0068; as for `COC1=C2C[C@@H](C)C[C@H](OC)[C@H](O)[C@@H](C)/C=C(\C)[C@H](OC(N)=O)[C@@H](OC)/C=C\C=C(/C)C(=O)NC(=CC1=O)C2=O` [Geldanamycin], 0.557 ± 0.023; as for `CCC(CC)CC1(C(=O)Nc2ccccc2SC(=O)C(C)C)CCCCC1`, 1.12 ± 0.055.
With `c1ccc2[nH]c(-c3cscn3)nc2c1` [Thiabendazole] the figure was 0.94 ± 0.13; with `Cn1cc(-c2ccc3nnc(C(F)(F)c4ccc5ncccc5c4)n3n2)cn1`, 0.996 ± 0.15; with `CC1(C)S[C@@H]2[C@H](NC(=O)[C@H](NC(=O)N3CCN(S(C)(=O)=O)C3=O)c3ccccc3)C(=O)N2[C@H]1C(=O)O` [Mezlocillin Sodium], 1.08 ± 0.021.
As to `Cn1c(=O)cc(N2CCC[C@@H](N)C2)n(Cc2ccccc2C#N)c1=O` [Alogliptin], the relative cell viability is 1.2 ± 0.12.
`Cc1nnc(C(C)C)n1C1C[C@H]2CC[C@@H](C1)N2CC[C@H](NC(=O)C1CCC(F)(F)CC1)c1ccccc1` (stereo in doubt) [Maraviroc] returned a relative cell viability of 0.983 ± 0.027.
With `CCCCCCCN(CC)CCCC(O)c1ccc(NS(C)(=O)=O)cc1` (stereo unspecified) [Ibutilide Fumarate] the figure was 1.08 ± 0.021.
As for `COc1cc(Nc2ncc(F)c(Nc3ccc4c(n3)N(COP(=O)(O)O)C(=O)C(C)(C)O4)n2)cc(OC)c1OC` [Fostamatinib (R788)], the figure is 0.928 ± 0.018.
As to `CC(C)c1cc(C(=O)N2Cc3ccc(CN4CCN(C)CC4)cc3C2)c(O)cc1O`, the relative cell viability came to 0.629 ± 0.062.
As for `COc1cnc(NS(=O)(=O)c2ccc(N)cc2)nc1` [Sulfameter], the figure is 1.09 ± 0.049; as for `O=NN(CCCl)C(=O)NC1CCCCC1` [Lomustine], 1.08 ± 0.036.
As for `COc1cc(CCC(C)=O)ccc1O` [Vanillylacetone], the figure is 1.07 ± 0.043.
As for `CCCCCCCCc1ccc(CCC(N)(CO)CO)cc1` [Fingolimod (FTY720) HCl], the figure is 0.739 ± 0.06; as for `COc1cc(C(=O)NC2CCCNC2)cc(OC)c1OC` (stereo unspecified) [Troxipide], 1.13 ± 0.016.
In the case of `Nc1ncnc2c1c(-c1cccc(OCc3ccccc3)c1)cn2C1CC(CN2CCC2)C1` (stereo unspecified), the relative cell viability is 1.14 ± 0.038.
With `C[C@]12CC[C@@H]3c4ccc(O)cc4CC[C@H]3[C@@H]1CCC2=O` [Estrone] the figure was 0.992 ± 0.1; with `NC(=S)N/N=C/c1ncccc1N` [Triapine], 1.07 ± 0.071; with `Nc1cccc2c1CN(C1CCC(=O)NC1=O)C2=O` (stereo unspecified) [Lenalidomide (CC-5013)], 1.14 ± 0.059.
As for `COc1ccc2[nH]c([S+]([O-])Cc3ncc(C)c(OC)c3C)nc2c1` (stereo unspecified) [Omeprazole], the figure is 1.242 ± 0.011; as for `COc1nc(-c2ccc3c(c2)OCO3)n(-c2ccc(NC(=O)CSc3ccccc3)cc2)n1` [SecinH3], 1.18 ± 0.014; as for `O=C(Nc1ccc(-c2ccnc(Nc3ccc(N4CCOCC4)cc3)n2)cc1)C1CCCN1` (stereo unspecified), 1.108 ± 0.0066.
As for `Cc1ccccc1N1C(=O)c2cc(S(N)(=O)=O)c(Cl)cc2NC1C` (stereo unspecified) [Metolazone], the figure is 1.01 ± 0.027; as for `Cc1cc(-n2c(=O)[nH]c(=O)n(C)c2=O)ccc1Oc1ccc(SC(F)(F)F)cc1` [Toltrazuril], 1.036 ± 0.0076; as for `[I-].[K+]` [Potassium Iodide], 1.07 ± 0.056.
`O=C(NS(=O)(=O)c1ccc(Br)s1)c1ccc(Cl)cc1Cl` [Tasisulam] registered a relative cell viability of 1.08 ± 0.014.
With `C/C(=N\NC(=O)c1cccc(S(=O)(=O)N2CCOCC2)c1)c1cc(Cl)ccc1O` the figure was 0.87899 ± 0.00067; with `COc1ccc(CNC(=O)Nc2ncc([N+](=O)[O-])s2)cc1`, 1.16 ± 0.078; with `Cn1c2ccccc2c2c3c(c4c5ccccc5n(CCC#N)c4c21)CNC3=O`, 1 ± 0.081.
In the case of `OCCOCCN1CCN(C(c2ccccc2)c2ccc(Cl)cc2)CC1` (stereo unspecified) [Hydroxyzine 2HCl], the relative cell viability turned out to be 1.1 ± 0.054.
With `Cc1nc(N)sc1-c1ccnc(Nc2ccc(N3CCOCC3)cc2)n1` the figure was 0.9862 ± 0.0045.
With `C[C@]12CC[C@@H]3c4ccc(O)cc4CC[C@H]3[C@@H]1C[C@@H](O)[C@@H]2O` [Estriol] the figure was 0.939 ± 0.23; with `OCC(O)C(O)CO` (stereo unspecified) [Erythritol], 1.118 ± 0.011.
With `C[C@@H]1CN(CC(=O)Nc2ccc3c(c2)Cc2cccc(-c4cc(=O)cc(N5CCOCC5)o4)c2S3)C[C@H](C)O1` the figure was 1.17 ± 0.021; with `CCC[C@H](NC(=O)[C@@H]1[C@H]2CCC[C@H]2CN1C(=O)[C@@H](NC(=O)[C@@H](NC(=O)c1cnccn1)C1CCCCC1)C(C)(C)C)C(=O)C(=O)NC1CC1` [Telaprevir (VX-950)], 1.06 ± 0.069.
The compound `Cc1noc(NS(=O)(=O)c2ccc(N)cc2)c1C` [Sulfisoxazole] yielded a relative cell viability of 1.06 ± 0.021.
With `CCc1cccc2c3c([nH]c12)C(CC)(CC(=O)O)OCC3` (stereo unspecified) [Etodolac] the figure was 1.24 ± 0.061; with `CC(=O)N1CCN(CCOc2ccc(C3CCN(C4=Nn5c(nnc5C(F)(F)F)CC4)CC3)cc2)CC1`, 1.03 ± 0.016; with `C=CC(=O)N1CCC[C@@H](n2nc(-c3ccc(Oc4ccccc4)cc3)c3c(N)ncnc32)C1`, 0.887 ± 0.016.
With `O=C(O)c1ccccc1C(=O)Nc1ccc(-c2ccccc2)cc1` [Kartogenin] the figure was 0.914 ± 0.16; with `CC1=C(CC(=O)O)c2cc(F)ccc2/C1=C\c1ccc([S+](C)[O-])cc1` (stereo unspecified) [Sulindac], 0.754 ± 0.044.
`C=CC(=O)Nc1ccc2ncnc(Nc3ccc(OCc4cccc(F)c4)c(Cl)c3)c2c1` had a relative cell viability of 0.787 ± 0.047.
With `CCOC(=O)[C@H](CCc1ccccc1)N[C@@H](C)C(=O)N1CCC[C@H]1C(=O)O` [Enalapril Maleate] the figure was 0.946 ± 0.085; with `CNC(=O)[C@H](Cc1ccccc1)NC(=O)[C@H](CC(C)C)[C@H](CSc1cccs1)C(=O)NO` [Batimastat (BB-94)], 0.884 ± 0.076; with `CC[C@@H]1/C=C(\C)C[C@H](C)C[C@H](OC)[C@H]2O[C@@](O)(C(=O)C(=O)N3CCCC[C@H]3C(=O)O[C@H](/C(C)=C/[C@@H]3CC[C@H](Cl)[C@H](OC)C3)[C@H](C)[C@@H](O)CC1=O)[C@H](C)C[C@@H]2OC` [Pimecrolimus], 1.07 ± 0.022.
